Test results reported in patent US20250297021A1 (SHANDONG SIMCERE BIOPHARMACEUTICAL CO NO 1, published 2025).

Experiments:
[1] = biological target: T1, monkey BCMA-His protein (monkey, UniProt A0A2K5UD97 1-53); assay: ELISA, monkey BCMA-His coated; Ab 1 nM
T1 construct: bought; monkey species not further stated for this product; also called monkey BCMA protein
Protocol: (§1) The specific method was as follows: Human BCMA protein (purchased from Acro, catalog number: BCA-H522y) and monkey BCMA protein (purchased from Acro, catalog number: BCA-C52H7) were diluted with PBS to a final concentration of 1 μg/mL, respectively, and then added to a 96-well ELISA plate at 50 μl/well. The plate was sealed with a plastic film and incubated overnight at 4° C., the plate was washed twice with PBS the next day, and then a blocking solution [PBS+2% (w/v) BSA] was added for blocking at room temperature for 2 h. The blocking solution was discarded, the plate was washed 3 times with PBS, and 100 nM BCMA human-mouse chimeric antibody diluted gradiently or control antibody was added at 50 μl/well. After incubation at 37° C. for 2 h, the plate was washed 3 times with PBS. HRP (horseradish peroxidase)-labeled secondary antibody (purchased from Merck, catalog number: AP113P) was added, and incubated at 37° C. for 1 h, and the plate was washed 5 times with PBS. TMB substrate was added at 50 μl/well, and incubated at room temperature for 10 min, then a stop solution (1.0 M HCl) was added at 50 μl/well. The OD450 nm values were read by an ELISA microplate reader (Multimode Plate Reader, EnSight, purchased from Perkin Elmer). The results are shown in Table 7, Table 8 and FIGS. 7A-7B and FIG. 8A-8B. All chimeric antibodies have good binding activity with human BCMA protein; except that BCMA-mAb06 has no cross-binding activity with monkey BCMA protein and BCMA-mAb07 has weak binding to monkey BCMA protein, other chimeric antibodies have good binding activity with monkey BCMA protein. The IgG subtype control is human IgG1.

[2] = biological target: T1, monkey BCMA-His protein; assay: ELISA, monkey BCMA-His coated; Ab 10 nM
Protocol: as §1

[3] = biological target: T1, monkey BCMA-His protein; assay: ELISA, monkey BCMA-His coated; Ab 0.1 nM
Protocol: as §1

[4] = biological target: T1, monkey BCMA-His protein; assay: ELISA, monkey BCMA-His coated; Ab 100 nM
Protocol: as §1

[5] = biological target: T1, monkey BCMA-His protein; assay: ELISA, monkey BCMA-His coated; Ab 0.01 nM
Protocol: as §1

[6] = biological target: T2, human BCMA-His protein (human, UniProt Q02223 1-54); assay: ELISA, human BCMA-His coated; Ab 0.0001 nM
T2 construct: bought; also called human BCMA protein; not shown: His tag
T2 sequence (looked up): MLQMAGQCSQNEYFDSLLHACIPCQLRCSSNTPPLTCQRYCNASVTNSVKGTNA
Protocol: as §1

[7] = biological target: T1, monkey BCMA-His protein; assay: ELISA, monkey BCMA-His coated; Ab 0.001 nM
Protocol: as §1

[8] = biological target: T1, monkey BCMA-His protein; assay: ELISA, monkey BCMA-His coated; Ab 0.0001 nM
Protocol: as §1

[9] = biological target: T3, human BCMA on cells (human, UniProt Q02223 1-184); assay: cell ELISA, Flp-inCHO-human BCMA cells; Ab 0.05 nM
T3 construct: whole, on cells; also called H929 cells; U266 cells
T3 sequence (looked up): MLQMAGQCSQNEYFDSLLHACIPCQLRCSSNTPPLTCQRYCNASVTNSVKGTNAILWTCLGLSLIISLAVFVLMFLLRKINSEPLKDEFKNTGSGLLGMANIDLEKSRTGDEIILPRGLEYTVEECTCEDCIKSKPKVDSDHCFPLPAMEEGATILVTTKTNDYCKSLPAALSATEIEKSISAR
Text: (§2) The specific method was as follows: The required cells were scale-up cultured in a T-75 cell culture flask to the logarithmic growth phase, the medium was aspirated, the cells were washed twice with a PBS buffer, and then digested with trypsin. Then the digestion was terminated with a complete medium, and the cells were pipetted to obtain a single cell suspension. After the cells were counted and centrifuged, the cell precipitate was resuspended to 4×10⁵ cells per milliliter with a complete medium, and the suspension was added to a 96-well flat-bottomed cell culture plate at 100 μl/well, and cultured overnight in a 37° C., 5% carbon dioxide incubator. On the next day, the medium in the 96-well plate was discarded, the cells were washed once with PBS, and then fixed at room temperature for 0.5 h with an immunostaining fixative (purchased from Beyotime, catalog number: P0098-500 ml) at 50 μl/well. A blocking solution [PBS+5% (w/v) skim milk] was added for blocking at room temperature for 2 h. The blocking solution was discarded, the plate was washed 3 times with PBS, and 100 nM BCMA human-mouse chimeric antibody diluted gradiently or control antibody was added at 50 μl/well. After incubation at 37° C. for 2 h, the plate was washed 3 times with PBS. HRP (horseradish peroxidase)-labeled secondary antibody (purchased from Merck, catalog number: AP113P) was added, and incubated at 37° C. for 1 h, and the plate was washed 5 times with PBS. TMB substrate was added at 50 μl/well, and incubated at room temperature for 10 min, then a stop solution (1.0 M HCl) was added at 50 μl/well. The OD450 nm values were read by an ELISA microplate reader (Multimode Plate Reader, EnSight, purchased from Perkin Elmer). The chimeric antibodies bind well to Flp-inCHO-human BCMA cells. The IgG subtype control is human IgG1.

[10] = biological target: T3, human BCMA on cells; assay: cell ELISA, Flp-inCHO-human BCMA cells; Ab 0.14 nM
Text: as §2

[11] = biological target: T3, human BCMA on cells; assay: cell ELISA, Flp-inCHO-human BCMA cells; Ab 0.41 nM
Text: as §2

[12] = biological target: T3, human BCMA on cells; assay: cell ELISA, Flp-inCHO-human BCMA cells; Ab 1.23 nM
Text: as §2

[13] = biological target: T3, human BCMA on cells; assay: cell ELISA, Flp-inCHO-human BCMA cells; Ab 0.002 nM
Text: as §2

[14] = biological target: T3, human BCMA on cells; assay: cell ELISA, Flp-inCHO-human BCMA cells; Ab 33.33 nM
Text: as §2

T1 sequence (A0A2K5UD97 entry or part of it limits assumed): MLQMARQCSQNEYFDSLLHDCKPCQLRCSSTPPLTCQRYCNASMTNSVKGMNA

Binder	OD450 [1]	OD450 [2]	OD450 [3]	OD450 [4]	OD450 [5]	OD450 [6]	OD450 [7]	OD450 [8]	OD450 [9]	OD450 [10]	OD450 [11]	OD450 [12]	OD450 [13]	OD450 [14]
BCMA-mAb03 (Fc fusion) scFv: QIPLVQSGPELKKPGETVKISCKASGYTFTNYAMTWVKQAPGKGLKWMGWIDTYSGVPTYADDFKGRFAFSLETSATTAYLQINNLKNEDTATYFCARVGVYGGYDTLDSWGQGTSVTVSSGGGGSGGGGSGGGGSDIQMTQTTSSLSASLGDRVTISCSASQGISNHLNWYQQKPDGTVKLLIYYTSSLHSGVPSRFSGSGSGTDYSLTISNLEPEDFATYYCQQYNNLPWTFGGGTKLEIK[human IgG1 Fc with C220S (EU numbers) not spelt out]	1.73	2.58	0.55	3.06	0.19	0.06	0.1	0.08	0.19	0.28	0.4	0.67	0.08	1.07
BCMA-mAb07 (Fc fusion) scFv: QVQLQQSGAELAKPGASVKLSCKASGYTFTDYWTHWVKQRPGQGLEWIGYINHGSGYTKYNQKFKDKATLTADKSSSTAYMQVSSLTYEDSAVYYCARLTGSYYFDYWGQGTTLTVSSGGGGSGGGGSGGGGSQIVLTQSPAIMSASPGEKVTMTCSASSSVSYMHWYQQKSGTSPKRWIYDTSKLASGVPPRFSGSGSGTSYSLTISSMEAEDAATYYCQQWSSNPLTFGAGTKLELK[human IgG1 Fc with C220S (EU numbers) not spelt out]	–	–	–	–	–	0.08	–	–	0.19	0.31	0.6	0.76	0.1	0.84
BCMA-mAb02 (Fc fusion) scFv: EVQLVESGGDLVQPGESLKLSCESNAYEFPSYDMSWVRKTPEKRLELVAAINSDGGITYYPDTMERRFIISRDNTKKTLYLQMSSLRSEDTALYYCARHGYGGGAYVLDYWGQGTSVTVSSGGGGSGGGGSGGGGSDIVMTQSQKFMSTTVGDRVRITCKASQNVGTAVAWYQQKPGQSPKVLIYSASSRYTGVPDRFTGSGSGTDFTLTINNMQSEDLADYFCQQYSNYHLTFGTGTKLELK[human IgG1 Fc with C220S (EU numbers) not spelt out]	1.32	2.55	0.28	2.56	0.08	0.05	0.05	0.05	0.18	0.36	0.54	0.87	0.08	1.11
BCMA-mAb04 (Fc fusion) scFv: QVQLQQSGAELARPGASVDLSCKASGYSFTSYGISWVKLRTGQGLEWIGEIYPRDDITYYNEKFKGKTTLTADKSSSTAYMELRSLTSEDSAVYFCARHDYYYVNSVSAMDYWGQGTSVTVSSGGGGSGGGGSGGGGSDIVMSQSPSSLAVSVGEKVTMSCKSSQSLLYSSNQKNYLAWYQQKPGQSPKLLIYWASTRYSGVPDRFTGSGSGTDFTLTVSSVRAEDLALYYCQQYYIYPWTFGGGTKLEIK[human IgG1 Fc with C220S (EU numbers) not spelt out]	1.85	2.66	0.68	2.95	0.27	0.07	0.15	0.1	0.18	0.32	0.42	0.68	0.07	1.09
BCMA-mAb01 (Fc fusion) scFv: EVKLVESGGGLVQPGGSLKLSCAASGFTFSDFYMYWVRQTPEKRLEWVAYITNGGENTYFPDTVKGRFTISRDNAKNTLYLQMSRLKSEDTAMYYCARQNPFYYYDSNYDYAMDFWGQGTSVTVSSGGGGSGGGGSGGGGSDVVMTQTPLTLSVTIGQPASISCKSSQSLLYSNGKTYLSWLFQRPGQSPKRLIYLVSELDSGVPDRFTGSGSGTDFTLKISRVEAEDLGIYYCVQGTHFPHTFGGGTKLEIK[human IgG1 Fc with C220S (EU numbers) not spelt out]	2.08	2.6	0.82	2.73	0.19	0.07	0.07	0.06	0.22	0.4	0.56	0.7	0.09	1.05
BCMA-mAb05 (Fc fusion) scFv: QGQMQQSDAELVKPGASVQISCKASGYMFTDHTFHWMRQRPEQGLEWIGYIYPRDDNTKYNEKFKGKATLTADKSSSTAYIHLNSLTSEDSAVYFCARAGYYGSSHAMDYWGQGTSVTVSSGGGGSGGGGSGGGGSDIVMTQSHKFMSTSVGDRVSITCKASQDVSTAVAWYQQKPGQSPRLLIYSASSRYTGVPDRFTGSGSGTDFTFTISSVQTEDLAVYYCQQLYSTPWTFGGGTKLEIK[human IgG1 Fc with C220S (EU numbers) not spelt out]	1.87	2.71	0.43	2.99	0.1	0.08	0.06	0.05	0.22	0.43	0.65	0.84	0.09	1.24
